Test results published in article PMC11149539.
Results are given in words; binding and its absence hold for the method and conditions named. In cells and extracts the contact can be indirect. Some binding calls cover weakened binding; strength is not graded here. For part of these data: Tags and fused reporters may be left off the sequences shown.

The chains behind the UniProt entries cited, without tags or fusion partners.
UniProt Q93008: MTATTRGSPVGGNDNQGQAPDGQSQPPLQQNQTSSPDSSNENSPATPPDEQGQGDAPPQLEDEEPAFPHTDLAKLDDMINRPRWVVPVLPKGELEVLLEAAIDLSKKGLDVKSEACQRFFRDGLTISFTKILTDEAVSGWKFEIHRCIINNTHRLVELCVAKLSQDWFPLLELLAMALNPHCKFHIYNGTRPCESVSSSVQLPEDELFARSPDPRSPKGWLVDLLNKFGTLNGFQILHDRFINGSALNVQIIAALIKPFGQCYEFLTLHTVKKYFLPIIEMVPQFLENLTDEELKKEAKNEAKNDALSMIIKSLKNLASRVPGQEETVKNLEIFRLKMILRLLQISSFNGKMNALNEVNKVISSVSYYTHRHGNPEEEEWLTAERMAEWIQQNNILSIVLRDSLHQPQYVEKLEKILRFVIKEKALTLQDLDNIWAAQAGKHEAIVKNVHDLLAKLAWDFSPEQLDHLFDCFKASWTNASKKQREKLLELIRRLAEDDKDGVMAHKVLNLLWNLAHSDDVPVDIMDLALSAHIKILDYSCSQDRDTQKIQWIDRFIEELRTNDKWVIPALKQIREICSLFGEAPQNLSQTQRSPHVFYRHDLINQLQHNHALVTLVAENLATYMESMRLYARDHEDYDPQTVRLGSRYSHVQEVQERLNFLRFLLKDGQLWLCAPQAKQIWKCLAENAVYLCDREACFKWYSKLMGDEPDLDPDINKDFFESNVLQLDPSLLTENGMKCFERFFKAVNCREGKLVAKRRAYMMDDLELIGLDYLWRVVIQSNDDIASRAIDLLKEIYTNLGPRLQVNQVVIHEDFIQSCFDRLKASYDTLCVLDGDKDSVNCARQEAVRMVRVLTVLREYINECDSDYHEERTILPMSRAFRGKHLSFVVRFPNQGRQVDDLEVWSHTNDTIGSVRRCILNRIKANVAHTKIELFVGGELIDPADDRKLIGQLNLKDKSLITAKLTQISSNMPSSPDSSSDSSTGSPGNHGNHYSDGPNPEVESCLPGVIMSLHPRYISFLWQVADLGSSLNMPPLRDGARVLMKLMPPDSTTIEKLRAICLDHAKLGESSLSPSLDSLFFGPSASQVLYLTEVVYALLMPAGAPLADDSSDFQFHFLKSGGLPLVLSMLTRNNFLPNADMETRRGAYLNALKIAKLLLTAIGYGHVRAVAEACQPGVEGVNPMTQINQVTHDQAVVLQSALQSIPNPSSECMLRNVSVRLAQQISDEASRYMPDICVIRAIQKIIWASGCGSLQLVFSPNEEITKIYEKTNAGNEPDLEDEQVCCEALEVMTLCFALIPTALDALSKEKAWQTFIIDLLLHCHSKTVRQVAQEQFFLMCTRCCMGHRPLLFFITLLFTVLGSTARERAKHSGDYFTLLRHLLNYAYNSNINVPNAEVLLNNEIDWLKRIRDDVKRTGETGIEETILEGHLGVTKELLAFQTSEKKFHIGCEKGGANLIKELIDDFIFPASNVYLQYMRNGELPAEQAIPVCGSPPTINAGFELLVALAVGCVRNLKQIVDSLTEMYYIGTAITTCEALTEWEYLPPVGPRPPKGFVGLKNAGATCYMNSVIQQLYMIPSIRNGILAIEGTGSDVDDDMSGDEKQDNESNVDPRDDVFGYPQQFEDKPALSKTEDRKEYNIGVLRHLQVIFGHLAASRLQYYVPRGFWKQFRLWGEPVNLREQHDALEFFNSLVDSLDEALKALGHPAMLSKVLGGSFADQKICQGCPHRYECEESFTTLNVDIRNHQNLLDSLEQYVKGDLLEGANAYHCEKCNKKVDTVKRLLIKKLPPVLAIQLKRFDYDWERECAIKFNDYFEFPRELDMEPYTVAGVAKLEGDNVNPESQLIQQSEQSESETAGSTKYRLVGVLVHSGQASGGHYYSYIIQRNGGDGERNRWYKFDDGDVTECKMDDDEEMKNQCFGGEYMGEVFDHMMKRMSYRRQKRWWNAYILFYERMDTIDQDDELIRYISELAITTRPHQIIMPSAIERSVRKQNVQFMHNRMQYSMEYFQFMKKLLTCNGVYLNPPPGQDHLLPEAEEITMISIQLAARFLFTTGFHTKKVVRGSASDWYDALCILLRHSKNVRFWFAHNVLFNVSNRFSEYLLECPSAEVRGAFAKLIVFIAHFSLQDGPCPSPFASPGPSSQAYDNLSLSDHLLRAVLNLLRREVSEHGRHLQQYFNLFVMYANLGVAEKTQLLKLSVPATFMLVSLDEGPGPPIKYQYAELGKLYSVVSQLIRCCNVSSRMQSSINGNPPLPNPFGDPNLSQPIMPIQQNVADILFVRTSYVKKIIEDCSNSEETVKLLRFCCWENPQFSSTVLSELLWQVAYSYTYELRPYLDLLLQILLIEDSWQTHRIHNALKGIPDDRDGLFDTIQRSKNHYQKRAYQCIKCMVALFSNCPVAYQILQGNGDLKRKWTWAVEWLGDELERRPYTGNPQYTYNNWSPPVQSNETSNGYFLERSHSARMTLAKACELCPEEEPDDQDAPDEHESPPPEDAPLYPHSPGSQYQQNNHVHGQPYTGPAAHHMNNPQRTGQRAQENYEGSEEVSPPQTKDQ
UniProt P09936: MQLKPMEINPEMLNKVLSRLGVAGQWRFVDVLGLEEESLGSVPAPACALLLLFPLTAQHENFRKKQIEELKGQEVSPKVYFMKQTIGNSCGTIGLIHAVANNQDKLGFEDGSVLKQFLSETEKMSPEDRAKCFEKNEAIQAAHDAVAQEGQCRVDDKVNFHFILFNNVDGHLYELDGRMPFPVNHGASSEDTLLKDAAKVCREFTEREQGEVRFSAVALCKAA

Columns and labels:
Flag-USP9X = Flag-USP9X (UniProt Q93008); test: co-IP; lysates of 293T cells transfected with Flag-tagged DUBs; IP with Flag beads, IB for endogenous POLD4 and Flag
Flag-USP22 = molecular target: T1, Flag-USP22 (UniProt Q9UPT9); test: as above
T1 sequence: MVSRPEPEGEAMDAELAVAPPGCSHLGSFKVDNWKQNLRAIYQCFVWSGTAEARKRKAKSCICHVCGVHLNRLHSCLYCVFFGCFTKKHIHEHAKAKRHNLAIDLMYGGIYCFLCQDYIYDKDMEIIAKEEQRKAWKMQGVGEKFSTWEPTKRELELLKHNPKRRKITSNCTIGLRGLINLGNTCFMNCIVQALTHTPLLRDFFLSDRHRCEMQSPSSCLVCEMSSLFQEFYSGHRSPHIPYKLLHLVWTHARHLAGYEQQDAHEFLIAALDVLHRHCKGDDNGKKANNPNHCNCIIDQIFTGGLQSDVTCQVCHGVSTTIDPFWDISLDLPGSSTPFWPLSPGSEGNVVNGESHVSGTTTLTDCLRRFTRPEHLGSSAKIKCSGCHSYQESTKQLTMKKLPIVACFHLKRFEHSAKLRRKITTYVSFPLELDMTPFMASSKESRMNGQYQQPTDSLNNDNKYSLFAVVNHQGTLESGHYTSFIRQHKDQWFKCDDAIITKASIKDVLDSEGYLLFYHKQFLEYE

Flag-UCHL1 = Flag-UCHL1 (UniProt P09936); test: as above
[1] = molecular target: T2, Flag-UCHL3 WT (ubiquitin carboxyl terminal hydrolase L3) (UniProt P15374); test: as above
T2 sequence: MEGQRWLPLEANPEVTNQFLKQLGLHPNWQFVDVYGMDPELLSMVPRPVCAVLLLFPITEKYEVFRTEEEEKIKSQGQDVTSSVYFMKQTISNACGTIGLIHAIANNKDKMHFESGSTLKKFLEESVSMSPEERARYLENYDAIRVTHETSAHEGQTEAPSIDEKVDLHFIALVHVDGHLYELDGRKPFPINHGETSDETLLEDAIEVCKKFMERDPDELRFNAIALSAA

Flag-UCHL3 S75A = molecular target: T3, Flag-UCHL3 S75A (UniProt P15374); test: co-IP; lysates of 293T cells transfected with His-POLD4 alone or with Flag-UCHL3 WT or S75A; IP with Flag beads, IB with His and Flag antibodies
T3 sequence: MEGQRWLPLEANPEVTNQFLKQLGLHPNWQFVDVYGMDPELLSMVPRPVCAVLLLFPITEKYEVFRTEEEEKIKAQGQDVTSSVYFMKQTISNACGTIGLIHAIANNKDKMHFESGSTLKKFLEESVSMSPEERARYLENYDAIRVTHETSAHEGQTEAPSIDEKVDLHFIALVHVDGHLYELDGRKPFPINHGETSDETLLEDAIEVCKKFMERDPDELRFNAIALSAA

[2] = molecular target: T2, Flag-UCHL3 WT (ubiquitin carboxyl terminal hydrolase L3); test: as above
[3] = molecular target: T4, endogenous UCHL3 (MES GSCs) (human (endogenous in MES21 and MES505 GSCs)) (UniProt P15374); test: co-IP; endogenous proteins in MES21 and MES505 lysates; IP with anti-POLD4 or anti-UCHL3 antibody, IgG isotype control, IB
T4 sequence: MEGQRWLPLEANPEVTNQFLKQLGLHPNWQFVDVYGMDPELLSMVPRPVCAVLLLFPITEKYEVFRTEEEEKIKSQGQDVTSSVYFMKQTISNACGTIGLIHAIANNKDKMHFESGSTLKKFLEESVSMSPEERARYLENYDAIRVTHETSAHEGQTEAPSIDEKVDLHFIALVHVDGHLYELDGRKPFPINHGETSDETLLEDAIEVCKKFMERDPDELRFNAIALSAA

GST-POLD4 = molecular target: T5, GST-POLD4 (UniProt Q9HCU8); test: pull-down; Glutathione Sepharose beads coated with GST-POLD4 incubated with HEK293T extract expressing Flag-UCHL3 WT or S75A, 2 h at 4 C, four washes, IB anti-Flag (the legend of Fig. 5E says purified Flag-proteins); only the target purified
T5 sequence: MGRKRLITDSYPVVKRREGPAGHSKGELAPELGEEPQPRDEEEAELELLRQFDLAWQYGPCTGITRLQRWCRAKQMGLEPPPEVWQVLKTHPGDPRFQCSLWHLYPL

B1: endogenous POLD4 (HEK293T) (protein, UniProt Q9HCU8 1-107)
chain: MGRKRLITDSYPVVKRREGPAGHSKGELAPELGEEPQPRDEEEAELELLRQFDLAWQYGPCTGITRLQRWCRAKQMGLEPPPEVWQVLKTHPGDPRFQCSLWHLYPL
For B1, which binding (Flag-USP9X) is on record?
The binding was “no binding”.

What about the binding (Flag-USP22) of the same binder?
The binding was “no binding”.

What about the binding (Flag-UCHL1) of the same binder?
Its binding is “no binding”.

And the binding [1]?
The binding was “binds”.

B2: His-POLD4 (protein, UniProt Q9HCU8 1-107)
chain: MGRKRLITDSYPVVKRREGPAGHSKGELAPELGEEPQPRDEEEAELELLRQFDLAWQYGPCTGITRLQRWCRAKQMGLEPPPEVWQVLKTHPGDPRFQCSLWHLYPL
How did the binding (Flag-UCHL3 S75A) turn out when B2 was run?
Its binding is “binds”.

And the binding [2]?
Its binding is “binds”.

B3: endogenous POLD4 (MES GSCs) (protein, UniProt Q9HCU8 1-107)
chain: MGRKRLITDSYPVVKRREGPAGHSKGELAPELGEEPQPRDEEEAELELLRQFDLAWQYGPCTGITRLQRWCRAKQMGLEPPPEVWQVLKTHPGDPRFQCSLWHLYPL
Which binding [3] does the source give for B3 here?
Its binding is “binds”.

B4: Flag-UCHL3 WT (ubiquitin carboxyl terminal hydrolase L3) (enzyme, UniProt P15374 1-230)
chain: MEGQRWLPLEANPEVTNQFLKQLGLHPNWQFVDVYGMDPELLSMVPRPVCAVLLLFPITEKYEVFRTEEEEKIKSQGQDVTSSVYFMKQTISNACGTIGLIHAIANNKDKMHFESGSTLKKFLEESVSMSPEERARYLENYDAIRVTHETSAHEGQTEAPSIDEKVDLHFIALVHVDGHLYELDGRKPFPINHGETSDETLLEDAIEVCKKFMERDPDELRFNAIALSAA
How did the binding (GST-POLD4) turn out when B4 was run?
Its binding is “binds”.

B5: Flag-UCHL3 S75A (enzyme, UniProt P15374 1-230)
chain: MEGQRWLPLEANPEVTNQFLKQLGLHPNWQFVDVYGMDPELLSMVPRPVCAVLLLFPITEKYEVFRTEEEEKIKAQGQDVTSSVYFMKQTISNACGTIGLIHAIANNKDKMHFESGSTLKKFLEESVSMSPEERARYLENYDAIRVTHETSAHEGQTEAPSIDEKVDLHFIALVHVDGHLYELDGRKPFPINHGETSDETLLEDAIEVCKKFMERDPDELRFNAIALSAA
For B5, which binding (GST-POLD4) is on record?
The binding was “binds”.
